{
  "source": "PubChem BioAssay AID445",
  "about": "(National Center for Advancing Translational Sciences (NCATS), 2006)",
  "note": "Among all 110,000 compounds or so, about 40 (0.04%) were called active. The shares of active, inactive and inconclusive entries below differ from those in the screen. The call rests on the fitted dose curve; in most records, active means well fitted curve in the direction sought with a large enough effect in the signal ratio (not every such curve was filed as active); inconclusive means small, poorly fitted or top-dose-only effect, or a change in a side signal; inactive means flat fitted curve, though single readings scatter; the % refers to the signal ratio. Potencies beside an inconclusive call are fits to weak or partial responses and may not hold up. Potency means the concentration at half of the fitted maximal effect.",
  "data": [
    {"assay": "IkB Signaling;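 on IkBa stabilization activation: 0% = basal untreated cells and 100% = reference inhibitor full response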", "conditions": "ABC-DLBCL IkBa-CBG/CBR dual luciferase ratio (green luciferase fused to IkBa over red control in OCI-Ly3 lymphoma cells), 4 h; IkBa stabilization activation: at 57.1 µM (top of the series), scaled: untreated 0%, proteasome inhibitor 100% unless noted", "outline": "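Luminescence ratio of IκBα-fused green versus native red beetle luciferase in OCI-Ly3 cells, 4 h post-doxycycline with compound; red signal alone, scaled from basal (0%) to zero light (-100%), flagged nonspecific or cytotoxic effects.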", "values": [
      {"smiles": "CCCCNC1C(CC)C(CCC)C(C#N)(C#N)C1(C#N)C#N", "note": "(stereo unspecified)", "IkBa stabilization activation": "inconclusive: 14.1% [signal inhibitor]"},
      {"smiles": "O=C(CC1N=C2c3ccccc3N=C(SCc3ccc(F)cc3)N2C1=O)NCc1ccc2c(c1)OCO2", "note": "(stereo unspecified)", "IkBa stabilization activation": "inactive: 1.15%"},
      {"smiles": "COc1cccc(Cn2c(=O)c(-c3ccc(Cl)cc3)nc3cnc(OC)nc32)c1", "IkBa stabilization activation": "inactive: 0.89% [at 11.4 µM, scaled: untreated 0%, proteasome inhibitor 100%]"},
      {"smiles": "Cc1cccc(C(=O)NCC(c2ccco2)S(=O)(=O)c2cccs2)c1", "note": "(stereo unspecified)", "IkBa stabilization activation": "inconclusive: 1.61% [signal inhibitor]"},
      {"smiles": "Cc1cccc(NC(=O)c2ccc(-c3ccccc3)s2)c1", "Potency": "inconclusive: 25.1 µM [signal inhibitor, partial curve]"},
      {"smiles": "Cc1nc2nc(-c3ccccc3)cc(=O)n2[nH]1", "IkBa stabilization activation": "inactive: 9.74%"},
      {"smiles": "CCC(Oc1ccccc1)C(=O)Nc1nnc(S(=O)(=O)N(CC)CC)s1", "note": "(stereo unspecified)", "IkBa stabilization activation": "inconclusive: 2.14% [signal inhibitor]"},
      {"smiles": "CCc1ccc(NC(=O)c2cnn(-c3ccccc3)c2-n2cccc2)cc1", "IkBa stabilization activation": "inconclusive: 2.56% [signal inhibitor]"},
      {"smiles": "CCC(C)c1ccc2oc(-c3ccc(NC(=O)c4cc5ccccc5o4)cc3)nc2c1", "note": "(stereo unspecified)", "IkBa stabilization activation": "inconclusive: 7.97% [signal inhibitor]"},
      {"smiles": "CC(C)CC(c1nnnn1C(C)(C)C)N1CCN(C2CCCC2)CC1", "note": "(stereo unspecified)", "IkBa stabilization activation": "inactive: 6.45%"},
      {"smiles": "Cc1cccc(Cn2c(=O)n3nc(-c4ccccc4)nc3c3ccccc32)c1", "IkBa stabilization activation": "inconclusive: 0.469% [signal inhibitor]"},
      {"smiles": "CCCC(=O)Nc1nnc(S(=O)(=O)N(C)Cc2ccc(Cl)cc2)s1", "IkBa stabilization activation": "inconclusive: 1.42% [signal inhibitor]"},
      {"smiles": "CCNc1ncc2nc(-c3cccc(C#N)c3)c(=O)n(Cc3cccc(OC)c3)c2n1", "IkBa stabilization activation": "inactive: 1.08% [at 11.4 µM, scaled: untreated 0%, proteasome inhibitor 100%]"},
      {"smiles": "COc1ccccc1Nc1nc(-c2ccccc2F)nc2ccccc12", "IkBa stabilization activation": "inconclusive: 1.75% [signal inhibitor]"},
      {"smiles": "O=S(=O)(NCCc1cn2ccccc2n1)c1ccc(F)c(C(F)(F)F)c1", "IkBa stabilization activation": "inactive: 1.48%"},
      {"smiles": "COc1ccc(OC)c(S(=O)(=O)Nc2ccc3oc4c(c3c2)C(=O)CCC4)c1", "IkBa stabilization activation": "inconclusive: 3.66% [signal inhibitor]"},
      {"smiles": "CCOC(=O)Cc1csc(NC(=O)CSc2nnc(-c3ccc(C)cc3)o2)n1", "IkBa stabilization activation": "inactive: 0.476%"},
      {"smiles": "COc1cc2c(C(=O)Nc3cc(OC)c(OC)c(OC)c3)cn(C)c(=O)c2cc1OC", "IkBa stabilization activation": "inconclusive: 9.11% [signal inhibitor]"},
      {"smiles": "Cc1ccc(-n2nc(C)c3c2OC(N)=C(C#N)C3c2ccc(F)cc2)cc1", "note": "(stereo unspecified)", "IkBa stabilization activation": "inconclusive: 8.07% [signal inhibitor]"},
      {"smiles": "CCN(CC)S(=O)(=O)c1ccc2c(c1)N(CC(=O)Nc1ccccc1F)C(=O)C1CCCN21", "note": "(stereo unspecified)", "IkBa stabilization activation": "inconclusive: 2.39% [signal inhibitor]"},
      {"smiles": "Cc1cnc(NC(=O)CSc2nnc(-c3ccccc3)n2Cc2ccccc2)s1", "IkBa stabilization activation": "inconclusive: 0.987% [signal inhibitor]"},
      {"smiles": "O=C1CS(=O)(=O)C2(C(=O)N(Cc3ccccc3Cl)c3ccccc32)N1c1ccc(F)cc1", "note": "(stereo unspecified)", "IkBa stabilization activation": "inconclusive: 1.7% [signal inhibitor]"},
      {"smiles": "CCOc1cccc(NC(=O)C2CC(=O)N(CC)C(=Nc3ccc(F)cc3)S2)c1", "note": "(stereo unspecified)", "IkBa stabilization activation": "inconclusive: -7.57% [signal inhibitor]"},
      {"smiles": "Cc1ccc(NC(=O)/C(C#N)=C/c2ccc(-c3ccc(Cl)c(C(=O)O)c3)o2)cc1C", "IkBa stabilization activation": "inconclusive: 6.64% [signal inhibitor]"},
      {"smiles": "CCOc1ccc(CCNC(=O)c2cc3cccc4c3n2CCS4)cc1", "IkBa stabilization activation": "inconclusive: 0.564% [signal inhibitor]"},
      {"smiles": "COC(=O)c1c(-c2ccc(Cl)cc2)noc1N1CCN(c2cc(C)ccc2C)CC1", "IkBa stabilization activation": "inconclusive: -0.122% [signal inhibitor]"},
      {"smiles": "NCCNCCNCCNCCN", "IkBa stabilization activation": "inactive: -2.5%"},
      {"smiles": "COc1ccc(N2CCN(c3ncnc4c3cnn4C)CC2)cc1", "IkBa stabilization activation": "inactive: 0.782%"},
      {"smiles": "COc1cccc(CN2CCN(C(=O)c3cccc4ccccc34)CC2)c1OC", "IkBa stabilization activation": "inconclusive: 0.614% [signal inhibitor]"},
      {"smiles": "CCCn1c(SCC(=O)Nc2ccccc2-c2ccccc2)nnc1-c1ccoc1C", "IkBa stabilization activation": "inconclusive: 2.39% [signal inhibitor]"},
      {"smiles": "Cc1cc(C)c(NC(=O)CSc2ncc3c(n2)-c2cc(Cl)ccc2N(C)S3(=O)=O)c(C)c1", "IkBa stabilization activation": "inconclusive: 2.08% [signal activator]"},
      {"smiles": "C=Cc1ccc(Cn2c(C(=O)O)c(CNCc3ccc(F)cc3)c3ccc(C)cc32)cc1", "IkBa stabilization activation": "inconclusive: -3.14% [signal inhibitor]"},
      {"smiles": "COC(=O)c1c(NC(=O)c2ccc(S(=O)(=O)N3CCC(C)CC3)cc2)sc2c1CCN(C)C2", "IkBa stabilization activation": "inconclusive: 2.46% [signal inhibitor]"},
      {"smiles": "Cc1cc(C)c(NC(=O)C2CCN(c3nc4ccccc4n4cccc34)CC2)c(C)c1", "IkBa stabilization activation": "inconclusive: -0.473% [signal inhibitor]"},
      {"smiles": "Cc1sc2nc(SCc3nc4ccccc4[nH]3)n(Cc3ccco3)c(=O)c2c1C", "IkBa stabilization activation": "inconclusive: 5.25% [signal inhibitor]"},
      {"smiles": "Cc1cc(C)c(OCC(=O)Nc2ccccc2N2CCOCC2)c(C)c1", "IkBa stabilization activation": "inactive: 3.61%"},
      {"smiles": "CN(C(=O)CSc1nnc(NC(=O)Nc2ccccc2)s1)c1ccccc1", "IkBa stabilization activation": "inconclusive: 3.42% [signal inhibitor]"},
      {"smiles": "Cc1ccccc1-c1cncnc1NCc1cccs1", "IkBa stabilization activation": "inactive: -0.0531% [at 11.4 µM, scaled: untreated 0%, proteasome inhibitor 100%]"},
      {"smiles": "Brc1cccc(-c2nnn3c2nc(NCc2ccc4c(c2)OCO4)c2ccccc23)c1", "Potency": "inconclusive: 12.6 µM [signal inhibitor, partial curve]"},
      {"smiles": "O=C(NCC(c1cccnc1)N1CCc2ccccc21)c1cccc(Br)c1", "note": "(stereo unspecified)", "IkBa stabilization activation": "inconclusive: 0.42% [signal inhibitor]"},
      {"smiles": "COc1ccc(-n2ncc(C(=O)NCc3ccco3)c2C2CCN(C(=O)OC(C)(C)C)CC2)cc1", "IkBa stabilization activation": "inconclusive: -0.0364% [signal inhibitor]"},
      {"smiles": "CCNc1ncc2ncc(=O)n(C3CC3)c2n1", "IkBa stabilization activation": "inactive: -0.694% [at 11.4 µM, scaled: untreated 0%, proteasome inhibitor 100%]"},
      {"smiles": "CCOC(=O)c1oc2ccc(S(=O)(=O)n3nc(-c4ccc(C)cc4)cc3N)cc2c1C", "IkBa stabilization activation": "inconclusive: 1.73% [signal inhibitor]"},
      {"smiles": "COc1cccc2sc(N(Cc3cccnc3)C(=O)c3ccc4c(c3)OCCO4)nc12", "IkBa stabilization activation": "inconclusive: 1.28% [signal inhibitor]"},
      {"smiles": "O=C(Nc1ccc2c(c1)OCO2)c1cccc(Cl)c1", "IkBa stabilization activation": "inconclusive: 4.91% [signal inhibitor]"},
      {"smiles": "O=C(Nc1ccc(-c2cn3ccsc3n2)cc1)c1ccc(F)c(S(=O)(=O)N2CCOCC2)c1", "Potency": "inconclusive: 31.6 µM [rising, partial curve]"},
      {"smiles": "CCCCCn1c(=O)[nH]c2cc(C(=O)Nc3ccc(F)c(F)c3)ccc2c1=O", "IkBa stabilization activation": "inactive: -4.2%"},
      {"smiles": "CCOc1ccccc1N1CC(C(=O)Nc2ccccc2N2CCOCC2)CC1=O", "note": "(stereo unspecified)", "IkBa stabilization activation": "inactive: 0.652%"},
      {"smiles": "CCN(CC)CCOC(=O)c1ccc(NC(=O)c2cc3c(=O)n(CC)c4ccccc4c3s2)cc1", "Potency": "inconclusive: 3.16 µM [signal inhibitor, partial curve]"},
      {"smiles": "COc1ccc(-c2nc(C#N)c(NCC3CCCO3)o2)cc1OC", "note": "(stereo unspecified)", "IkBa stabilization activation": "inactive: -3.08%"},
      {"smiles": "COc1ccccc1C1c2c(-c3ccc(Cl)cc3)n[nH]c2C(=O)N1c1ccc(C)cc1", "note": "(stereo unspecified)", "IkBa stabilization activation": "inconclusive: -0.968% [signal inhibitor]"},
      {"smiles": "Cc1ccccc1C(=O)Nc1cccc(OCc2cc(=O)n3c(C)csc3n2)c1", "IkBa stabilization activation": "inconclusive: 2.17% [signal inhibitor]"},
      {"smiles": "Cc1ccc(S(=O)(=O)N2CCC(C(=O)NCc3ccccc3Cl)CC2)cc1", "IkBa stabilization activation": "inconclusive: 3.51% [signal inhibitor]"},
      {"smiles": "Cc1ccccc1S(=O)(=O)Cc1ccc(C(=O)N2CCN(c3cccc(Cl)c3)CC2)o1", "IkBa stabilization activation": "inconclusive: 4.15% [signal inhibitor]"},
      {"smiles": "Cc1ccc(C)c(NC(=O)CN2CCSc3ccc(S(=O)(=O)N4CCCC4)cc32)c1", "IkBa stabilization activation": "inactive: 0.35%"},
      {"smiles": "Cn1c(=O)c2c(nc(CN3CCOCC3)n2CCN2CCOCC2)n(C)c1=O", "IkBa stabilization activation": "inactive: -0.656%"},
      {"smiles": "CCn1c(SCC(=O)c2ccc(O)c(O)c2)nnc1-c1ccccc1OC", "IkBa stabilization activation": "inactive: 6.67%"},
      {"smiles": "CN(c1ccccc1)S(=O)(=O)c1ccc(NC(=O)c2nc(S(C)(=O)=O)ncc2Cl)cc1", "IkBa stabilization activation": "inconclusive: -3.2% [signal inhibitor]"},
      {"smiles": "COC(=O)c1c(NC(=O)CCCOc2cccc(C)c2)sc2c1CCC2", "IkBa stabilization activation": "inconclusive: 8.33% [signal inhibitor]"},
      {"smiles": "COc1ccc(C(=O)N2CCC[C@@]3(CCN(c4cccc(-c5ccccc5)c4)C3)C2)cc1", "Potency": "inconclusive: 3.16 µM [signal inhibitor, partial curve]"},
      {"smiles": "CC(=O)Nc1ccc(S(=O)(=O)N2CCN(C(C)CCc3ccccc3)CC2)cc1", "note": "(stereo unspecified)", "IkBa stabilization activation": "inconclusive: 3.66% [signal inhibitor]"},
      {"smiles": "O=C(c1ccco1)c1nnn(Cc2ccccc2)c1-c1ccccc1", "IkBa stabilization activation": "inconclusive: 5.35% [signal inhibitor]"},
      {"smiles": "Cc1cc(C)n(-c2nnc(Nc3ccc(C)c(C)c3)c3ccccc23)n1", "IkBa stabilization activation": "inconclusive: 3.25% [signal inhibitor]"},
      {"smiles": "Cc1cccc(NC(=O)Cn2cc(C(=O)C3CCCCC3)c3ccccc32)c1", "IkBa stabilization activation": "inconclusive: 6.87% [signal inhibitor]"},
      {"smiles": "CCOC(=O)COc1ccc(C2C(C(=O)OC)=C(C)NC3=C2C(=O)c2ccccc23)cc1Cl", "note": "(stereo unspecified)", "Potency": "inconclusive: 3.16 µM [signal inhibitor]"},
      {"smiles": "CCOC(=O)CC(NC(=O)CCc1c(C)nc2c(-c3ccccc3)c(C)nn2c1C)c1ccc(OC(C)C)cc1", "note": "(stereo unspecified)", "IkBa stabilization activation": "inconclusive: -0.956% [signal inhibitor]"}
    ]}
  ]
}
